Laboratory results from publication PMC4336329 (PLoS ONE, 2015).
Among all 310,000 compounds or so, about 2,200 (0.71%) showed an effect of 50% or more. The effect is printed as a negative number. The list shows a part of the results.

Target: human ether-à-go-go-related gene (hERG) potassium channel (human, UniProt Q12809)
Assay: primary screen, population patch clamp on CHO cells stably expressing hERG

Chain of human ether-à-go-go-related gene (hERG) potassium channel (Q12809 whole entry, looked up): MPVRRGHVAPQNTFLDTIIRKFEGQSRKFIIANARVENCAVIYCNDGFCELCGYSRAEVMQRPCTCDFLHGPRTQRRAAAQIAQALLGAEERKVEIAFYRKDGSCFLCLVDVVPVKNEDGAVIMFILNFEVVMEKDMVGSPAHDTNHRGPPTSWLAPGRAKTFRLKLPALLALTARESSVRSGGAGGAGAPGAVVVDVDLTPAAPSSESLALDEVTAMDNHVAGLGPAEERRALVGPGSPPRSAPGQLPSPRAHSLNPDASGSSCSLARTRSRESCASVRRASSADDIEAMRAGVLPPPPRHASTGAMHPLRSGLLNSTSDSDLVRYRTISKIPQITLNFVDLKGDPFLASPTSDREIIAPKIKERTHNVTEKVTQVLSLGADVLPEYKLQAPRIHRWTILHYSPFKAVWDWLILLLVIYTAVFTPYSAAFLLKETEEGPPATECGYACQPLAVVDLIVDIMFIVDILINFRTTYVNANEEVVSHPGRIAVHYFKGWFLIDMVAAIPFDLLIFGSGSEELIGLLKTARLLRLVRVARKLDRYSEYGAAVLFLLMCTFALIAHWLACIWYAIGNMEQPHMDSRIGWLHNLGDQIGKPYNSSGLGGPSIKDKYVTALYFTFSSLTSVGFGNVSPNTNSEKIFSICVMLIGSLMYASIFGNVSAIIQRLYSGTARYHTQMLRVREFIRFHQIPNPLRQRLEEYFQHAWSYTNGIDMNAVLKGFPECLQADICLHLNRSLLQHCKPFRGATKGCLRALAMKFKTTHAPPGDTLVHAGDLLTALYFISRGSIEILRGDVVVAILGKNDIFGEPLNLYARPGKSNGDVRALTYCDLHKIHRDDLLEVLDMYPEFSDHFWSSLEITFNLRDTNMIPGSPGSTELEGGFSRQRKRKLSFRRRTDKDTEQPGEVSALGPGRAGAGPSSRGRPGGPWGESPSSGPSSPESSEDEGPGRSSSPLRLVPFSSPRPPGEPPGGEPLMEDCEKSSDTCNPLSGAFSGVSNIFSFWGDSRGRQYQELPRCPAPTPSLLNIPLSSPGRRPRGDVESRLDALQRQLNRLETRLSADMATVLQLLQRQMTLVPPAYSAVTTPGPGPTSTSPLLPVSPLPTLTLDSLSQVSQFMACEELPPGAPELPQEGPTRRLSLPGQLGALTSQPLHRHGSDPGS

Row | SMILES | hERG current change (%, negative = inhibition) at 1uM
1 | Cc1ccccc1C(=O)NC1CC2CCC(C1)N2Cc1ccccc1 (stereo not shown) | 7.57%
2 | O=C(CN1CCN(Cc2ccccc2)CC1)Nc1nnc(C(F)(F)F)s1 | 17.7%
3 | CC(NC(=O)Nc1ccc([N+](=O)[O-])cc1)C(c1ccccc1)N1CCOCC1 (stereo not shown) | 12.7%
4 | O=C(Nc1cccnc1Cl)c1cc(-c2cccc(Cl)c2)on1 | 8.28%
5 | CC(C)Cc1nnc(NC(=O)CCC(=O)N2CCN(c3ccccc3F)CC2)s1 | 17%
6 | CCn1c(CSc2nc3ccccc3s2)nnc1SCC(N)=O | 3.1%
7 | Cl.N=c1sccn1CC(=O)N1CCc2ccccc21 | 5.01%
8 | O=C(CN1C(=O)NC(c2ccccc2)(c2ccccc2)C1=O)Nc1ccc2[nH]c(=O)[nH]c2c1 | 10.6%
9 | O=C(CCS(=O)(=O)c1cc2c(cc1Cl)NC(=O)CO2)NCCc1ccccc1 | 13.2%
10 | COC(=O)c1cc(S(=O)(=O)NCc2cccc(OC)c2)cn1C | -4.99%
11 | O=C(Cc1ccccc1)Nc1ccc(NC(=O)C2CC2)nc1 | 6.56%
12 | O=C(Nc1cc(S(=O)(=O)N2CCOCC2)ccc1OCC(F)(F)F)c1ccc(N2CCCC2=O)cc1 | 1.86%
13 | Cc1cccn2c(=O)c(C=O)c(Cl)nc12 | 8.55%
14 | CCN1CCN(CC(=O)Nc2nc3ccc(C)cc3s2)CC1 | 9.7%
15 | O=C1OCCC1Sc1nc2ccccc2n1Cc1ccccc1 (stereo not shown) | -16.4%
16 | CCOC(=O)C(NC(=O)c1cccc(Cl)c1)(Nc1sc2c(c1C(N)=O)CCC2)C(F)(F)F (stereo not shown) | 4.69%
17 | CCOC(=O)c1c(N2C(=O)Nc3cc(Cl)c(Cl)cc3N2O)sc2c1CCCCC2 | 16.3%
18 | Cc1ccccc1/C(N)=N/OC(=O)c1ccc(F)cc1 | 9.14%
19 | O=C(Nc1nccs1)C(c1ccccc1)N1CCCCC1 (stereo not shown) | 7.57%
20 | O=C(Nc1ccc(N2CCCCCC2)cc1)c1ccc[nH]1 | 4.22%
21 | CCN(CC(=O)NC(C)(C)C)C(=O)C(c1ccccc1)c1ccccc1 | 10%
22 | CCOC(=O)c1cn(Cc2ccc(C)cc2)c2cc(F)ccc2c1=O | 12.5%
23 | Cc1ccccc1-c1nc(CS(=O)(=O)CC(=O)NCCCN2CCCC2=O)c(C)o1 | 6.98%
24 | O=C(NCCCn1ccnc1)c1cn(-c2ccccc2)nc1-c1ccccc1 | -4.78%
25 | Cc1ccc(-c2cc(C(F)(F)F)n3nc(C(=O)Nc4ccon4)cc3n2)cc1C | 7.99%
